Measured values taken from PubChem BioAssay AID504832 (National Center for Advancing Translational Sciences (NCATS), 2011).
The campaign covered roughly 310,000 compounds. About 18,000 (5.8%) were called active. The inconclusive results got no clear call from the source; some entries with a clear call stand among them for comparison. The call rests on the fitted dose curve; in most records, active means well fitted inhibition curve with a large enough effect; inconclusive means small, poorly fitted or top-dose-only effect, or another doubt; inactive means no such curve, though single readings can be large or run the other way. No potency is given beside an inconclusive call; the fits are too rough.

Assay: Primary qHTS for delayed death inhibitors of the malarial parasite plastid, 48 hour incubation
Details: P. falciparum luciferase growth in erythrocytes; series mostly up to 28.7 µM
Summary of the method: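 Parasite viability was followed by luminescence of a genomically integrated firefly luciferase. Cultures held 0.1% parasitemia at 2% hematocrit (final), incubated under 5% CO2 at 37 C.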
Potency means the concentration at half of the fitted maximal effect; tags describe the fitted curve by direction and shape.

| Structure (SMILES) | Potency |
| --- | --- |
| C=CCn1c(SCC(=O)Nc2ncc(Cc3ccc(Br)cc3)s2)nnc1-c1ccncc1 | inconclusive [inhibitor, full curve, poor fit] |
| CCOC(=O)c1cnc(SCC(=O)N2CCC(C(N)=O)CC2)nc1N | inactive |
| O=C(NC1CC1)C1=C[C@@H](c2c[nH]c3ccccc23)C[C@@H](OCCCCO)O1 | inconclusive [inhibitor, partial curve, poor fit] |
| Cc1cccc(C(=O)Nc2cccc(C(=O)NC3CCCC3)c2)c1 | inactive |
| CCN(CC)C(=O)CSc1nc(N)c(C(=O)Nc2ccc(OC)cc2)s1 | inactive |
| O=C(c1cccc(F)c1)N1CCN(C(=O)C(c2ccccc2)c2ccccc2)CC1 | inactive |
| Cc1ccc(S(=O)(=O)N(CC(=O)NCC2CCCO2)c2cccc([N+](=O)[O-])c2)cc1 (configuration not stated) | inconclusive [inhibitor, partial curve, poor fit] |
| Nc1c(N2CCCC2)cc(Cl)c2nonc12 | inconclusive [inhibitor, single point] |
| O=C(Nc1cccnc1)c1cc(-c2ccccc2O)on1 | inactive |
| CCCCn1c(N)c(N(CC(C)C)C(=O)C2CC(=O)N(Cc3ccccc3)C2)c(=O)[nH]c1=O (configuration not stated) | inconclusive [inhibitor, single point] |
| CCN1CCN(Cc2ccc(NC(=O)c3cc(NC(=O)c4cnnc5ccccc45)cc(OC)c3)cc2C(F)(F)F)CC1 | active: 2.33 µM |
| Cc1cc(Cl)ccc1OCCCC(=O)NCCN1C(=O)S/C(=C\c2cccnc2)C1=O | inactive |
| Cc1ccc(NC(=O)c2sccc2C)cc1S(=O)(=O)N(C)C | inactive |
| Cc1cccc([C@@H]2[C@@H]3C(=O)N(Cc4ccccc4)C(=O)[C@@H]3[C@]3(Cc4ccccc4)C(=O)N(c4cccc(Cl)c4)C(=O)N23)c1 | active: 4.65 µM |
| CCOC(=O)C1=C(C)N=c2s/c(=C/c3cccc(OCC(=O)O)c3)c(=O)n2C1c1ccc(F)cc1 (configuration not stated) | inconclusive [inhibitor, full curve, poor fit] |
| Cc1c(Cl)cccc1NS(=O)(=O)c1ccc2c(c1)C1C=CCC1C(c1ccc(C(=O)O)cc1)N2 (configuration not stated) | inactive |
| COc1ccc([C@H]2[C@H](C(=O)OC(C)(C)C)N3N=Cc4ccccc4C3C23C(=O)c2ccccc2C3=O)cc1OC (some centres not stated) | active: 10.4 µM |
| CCOC(=O)c1cc(C)n(-c2ccc(OC)c(OC)c2)c1C | inconclusive [inhibitor, single point] |
| O=C(Nc1ccc(C#Cc2ccccc2)cc1)C1CC1 | inactive |
| Cc1ccccc1N1CCN(C2CCCN(C(=O)CCc3c(C)noc3C)C2)CC1 (configuration not stated) | inconclusive [inhibitor, partial curve] |
| Cc1cc(/C=C\c2nc(O)c([N+](=O)[O-])c(=O)[nH]2)c(C)n1-c1ccccc1 | inactive |
| Cc1cc(=O)[nH]c(SCC(=O)N2CCN(C(c3ccccc3)c3ccccc3)CC2)n1 | active: 13.1 µM |
| CCNCc1cc(Br)c(OCC(=O)Nc2ccccc2)c(OC)c1 | inconclusive [inhibitor, single point] |

| Structure (SMILES) | Potency |
| --- | --- |
| CCC(=C(c1ccc(OC)cc1)c1ccc(OC)cc1)c1cn(CC(O)CN2CCN(C)CC2)c2ccccc12 (configuration not stated) | active: 9.28 µM |
| CCn1cc(C(=O)Nc2ccc(OC)c(S(=O)(=O)N3CCCCC3)c2)c(=O)c2ccc(C)nc21 | inactive |
| CCNC(=S)N/N=C/c1cccc(OCc2c(F)cccc2Cl)c1 | inconclusive [inhibitor, single point] |
| CC(C)(C)C(=O)NC(=S)Nc1ccccc1N1CCCC1 | inconclusive [inhibitor, single point] |
| CCc1ccnc(NS(=O)(=O)c2ccc3c(c2)OCCO3)c1 | inconclusive [inhibitor, single point] |
| Cc1cccc(OCC(=O)Nc2ccc(S(=O)(=O)N3CCN(C)CC3)cc2)c1 | inconclusive [inhibitor, partial curve] |
| O=C(Nc1ccc(F)cc1)C1CCN(C(=O)c2ccc([N+](=O)[O-])cc2)CC1 | inconclusive [inhibitor, partial curve, poor fit] |
| CCN(CC)S(=O)(=O)c1ccc(NC(=O)CN(c2cccc(C)c2)S(C)(=O)=O)cc1 | inconclusive [inhibitor, single point] |
| C=CCCC(=O)NC1CC(C)(C)Cc2c1cnn2-c1cccc(F)c1 (configuration not stated) | inconclusive [inhibitor, partial curve] |
| C=CCOc1ccc(C(=O)N(Cc2ccc(N(C)C)cc2)C2CCS(=O)(=O)C2)cc1 (configuration not stated) | inconclusive [inhibitor, single point] |
| COc1ccccc1C(=O)Nc1ccc(C(=O)O)cc1 | inactive |
| Nc1nc(COc2ccc(F)cc2Cl)nc(N2CCCCC2)n1 | inactive |
| COc1ccc(CCNC(=O)CCNS(=O)(=O)c2ccc3c(c2)CCN3C(C)=O)cc1OC | inconclusive [inhibitor, partial curve] |
| O=c1c2c(-c3ccc(Cl)cc3)csc2nc2n1CCC2 | inconclusive [inhibitor, partial curve] |
| O=C(Nc1cccc(-c2nc3cccnc3s2)c1)c1ccco1 | inactive |
| O=c1c2ccccc2ncn1-c1ccccc1[N+](=O)[O-] | inactive |
| O=[N+]([O-])c1ccc(N2CCN(c3ccc([N+](=O)[O-])cc3CO)CC2)c(CO)c1 | inconclusive [inhibitor, partial curve] |
| CN(C)c1cc[n+](CC(=O)Nc2ccc(Cl)cc2)cc1 | active: 0.0828 µM |
| CN1CCN(C(=S)c2ccc(-c3cc(Cl)ccc3Cl)o2)CC1 | inconclusive [inhibitor, single point] |
| CCOc1ccc(CN2CCN(Cc3cnc(-c4ccccc4)s3)CC2CCO)cc1 (configuration not stated) | inconclusive [inhibitor, single point] |
| C#CCOCCOCCOCCNc1nc(N2CCN(C(=O)[C@H]([C@@H](C)CC)n3cc(CCCCN)nn3)CC2)nc(N2CCN(C(=O)[C@H](C)n3cc(CCCN=C(N)N)nn3)CC2)n1 | inconclusive [inhibitor, single point] |
| C=CCCCCCCCCC(=O)NNC1CC(=O)N(c2ccccc2)C1=O (configuration not stated) | inactive |
| CCc1cc(=O)oc2cc(C)cc(OCC(=O)NCC(O)c3ccccc3)c12 (configuration not stated) | inconclusive [inhibitor, full curve] |

| Structure (SMILES) | Potency |
| --- | --- |
| Cc1cc(O)ccc1NS(=O)(=O)c1ccc2c3c(cccc13)C(=O)N2 | inconclusive [inhibitor, single point] |
| COc1nnc(-c2ccc(N3CCOCC3)c(NC(=O)C3CCCCC3)c2)c2ccccc12 | inconclusive [inhibitor, single point] |
| Cn1cc(/C=C(\NC(=O)c2ccccc2)C(=O)NCCN2CCOCC2)c2ccccc21 | inconclusive [inhibitor, partial curve, poor fit] |
| O=C(CN1CCN(c2ccccn2)CC1)Nc1cccc(F)c1 | inconclusive [inhibitor, partial curve, poor fit] |
| CCC(=O)c1ccc(OCC(=O)N2CCN(C(=O)c3ccccc3)CC2)cc1 | inconclusive [inhibitor, single point] |
| COc1c(C)cc(C(=O)C2CCCN(Cc3ccccn3)C2)cc1C (configuration not stated) | active: 2.08 µM |
| COc1ccc(OC)c(C2C(C(=O)Nc3nc4ccccc4s3)=C(C)NC3=C2C(=O)CCC3)c1 (configuration not stated) | inconclusive [inhibitor, partial curve, poor fit] |
| CCOC(=O)[C@@H]1[C@H]2COc3ccccc3[C@H]2N2C(=O)N(c3cccc(F)c3)C(=O)[C@]12C | inactive |
| CCN(CC)S(=O)(=O)c1cccc(C(=O)OCC(=O)Nc2ccc3c(c2)c2ccccc2n3CC)c1 | inactive |
| Cc1ccc(C)c(SCC(=O)Nc2ccc(C)c(S(=O)(=O)N3CCOCC3)c2)c1 | inconclusive [inhibitor, single point] |
| CCOC(=O)N1CCN(C(=O)c2ccc(OC)c(S(=O)(=O)N3CCOCC3)c2)CC1 | inactive |
| Cc1ccc(Sc2cnn(-c3ccccc3)c(=O)c2Cl)cc1 | inconclusive [inhibitor, partial curve, poor fit] |
| Cn1cnc([N+](=O)[O-])c1Cl | inconclusive [inhibitor, single point] |
| Cc1cc(C)c(NC(=O)CCCC(=O)O)c(Cl)c1 | inactive |
| CCCOc1ccc([N+](=O)[O-])cc1C1NC(=S)NC(c2ccccc2)=C1C(=O)OCC (configuration not stated) | inconclusive [inhibitor, single point] |
| Cc1cccc(C(=O)NC(C(=O)Nc2nc(-c3ccccn3)cs2)C(C)C)c1 (configuration not stated) | active: 14.7 µM |
| FCCCOc1ccc(/C=N/OCc2ccc(Cl)cc2)cc1 | inconclusive [inhibitor, single point] |
| Cc1cccc(N/N=C(\C#N)S(=O)(=O)C(C)(C)C)c1 | inactive |
| Cc1ccc(NCC(=O)N/N=C/c2cc3ccccc3nc2Cl)cc1 | inconclusive [inhibitor, single point] |
| CCC(C)(C)C1CCc2[nH]nc(C(=O)NCC3CC3)c2C1 (configuration not stated) | inconclusive [inhibitor, single point] |
| COCCn1c(SCC(=O)N2CCCC2)nc2c([nH]c3ccccc32)c1=O | inconclusive [inhibitor, partial curve, poor fit] |
